Measured values as given in PubChem BioAssay AID1347165 (National Center for Advancing Translational Sciences (NCATS), 2019).
Screen size: about 220,000 compounds; about 5,700 (2.6%) were called active. The shares of active, inactive and inconclusive entries below differ from those in the screen. Calls follow the shape of the dose curve; as a rule, active = well fitted inhibition curve with a large enough effect; inconclusive = small, poorly fitted or top-dose-only effect; inactive = no such curve, though single readings can be large or run the other way. Potencies of inconclusive entries are doubtful fits and often do not repeat.
Also: nearly all actives have a fitted effect of over 70% in size.
For activity change, negative = inhibition in this document: 0% is about no effect.
Potency is read from the fitted curve at half-maximal effect; tags tell the direction and shape of the fitted curve.

What follows are molecules tested against Lysine-specific demethylase 5B (Homo sapiens) (UniProt Q9UGL1) (assay: Primary screen for KDM5B Histone Demethylases FDH-coupled qHTS). Settings: FDH-coupled NADH fluorescence (FDH is formaldehyde dehydrogenase); activity change, negative = inhibition: at 57.7 µM (top of the series) unless noted.
Chain of UniProt Q9UGL1 (Q9UGL1 whole entry, looked up): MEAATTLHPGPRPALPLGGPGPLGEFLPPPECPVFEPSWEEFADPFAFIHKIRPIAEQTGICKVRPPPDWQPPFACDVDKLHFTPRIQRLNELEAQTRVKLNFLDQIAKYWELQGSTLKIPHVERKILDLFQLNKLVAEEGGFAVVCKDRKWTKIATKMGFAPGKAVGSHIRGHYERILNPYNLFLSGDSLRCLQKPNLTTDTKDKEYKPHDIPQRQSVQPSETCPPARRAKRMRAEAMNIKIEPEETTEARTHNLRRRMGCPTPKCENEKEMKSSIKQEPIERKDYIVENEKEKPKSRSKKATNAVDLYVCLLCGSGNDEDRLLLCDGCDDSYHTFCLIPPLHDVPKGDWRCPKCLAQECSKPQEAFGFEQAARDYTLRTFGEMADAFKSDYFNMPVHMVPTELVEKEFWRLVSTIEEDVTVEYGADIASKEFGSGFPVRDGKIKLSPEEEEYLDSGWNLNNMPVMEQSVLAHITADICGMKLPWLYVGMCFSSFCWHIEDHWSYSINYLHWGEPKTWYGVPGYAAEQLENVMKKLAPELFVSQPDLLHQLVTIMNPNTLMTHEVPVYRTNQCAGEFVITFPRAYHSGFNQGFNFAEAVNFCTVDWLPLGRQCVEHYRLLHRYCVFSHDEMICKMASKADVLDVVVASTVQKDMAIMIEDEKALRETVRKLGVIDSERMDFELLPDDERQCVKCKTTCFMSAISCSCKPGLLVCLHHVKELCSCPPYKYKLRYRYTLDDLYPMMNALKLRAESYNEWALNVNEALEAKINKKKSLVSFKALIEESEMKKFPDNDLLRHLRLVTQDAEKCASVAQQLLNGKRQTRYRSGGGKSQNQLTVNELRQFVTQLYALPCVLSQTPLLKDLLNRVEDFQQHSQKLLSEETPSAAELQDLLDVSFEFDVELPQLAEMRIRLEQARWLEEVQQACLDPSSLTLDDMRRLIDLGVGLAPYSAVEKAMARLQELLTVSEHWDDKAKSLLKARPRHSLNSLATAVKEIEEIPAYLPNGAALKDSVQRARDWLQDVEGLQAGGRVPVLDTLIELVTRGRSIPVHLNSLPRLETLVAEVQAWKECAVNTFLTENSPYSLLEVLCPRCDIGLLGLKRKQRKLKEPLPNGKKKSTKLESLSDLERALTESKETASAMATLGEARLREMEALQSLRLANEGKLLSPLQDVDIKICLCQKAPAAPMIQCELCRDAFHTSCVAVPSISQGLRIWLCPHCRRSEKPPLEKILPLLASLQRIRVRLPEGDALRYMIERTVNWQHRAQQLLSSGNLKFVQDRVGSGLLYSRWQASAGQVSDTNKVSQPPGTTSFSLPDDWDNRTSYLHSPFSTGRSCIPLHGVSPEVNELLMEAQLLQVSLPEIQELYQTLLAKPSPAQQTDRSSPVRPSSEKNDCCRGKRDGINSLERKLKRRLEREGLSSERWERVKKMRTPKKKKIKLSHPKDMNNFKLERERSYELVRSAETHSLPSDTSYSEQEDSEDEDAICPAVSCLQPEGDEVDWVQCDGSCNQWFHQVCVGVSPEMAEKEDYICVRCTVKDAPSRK
Summary of the method: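 KDM5BΔAP (200 nM final) in 50 mM HEPES pH 7.5, 0.01% Tween-20 was preincubated 10 min at RT with compound over a concentration range. Substrate mix (H3K4me3 12.5 µM, α-KG 25 µM, Fe²⁺, ascorbate, NAD⁺, FDH) was added, and NADH fluorescence change over 30 min gave dose-response curves.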
For COc1ccc(CC(=O)N2[C@@H]3CC[C@H]2CC(NC(=O)c2cnc(C)cn2)C3)cc1OC (some centres not stated), the “activity change, negative = inhibition” value was inactive: -12.4%.
With CCN(CC)S(=O)(=O)c1ccc(NC(=O)CN(c2ccc(F)c(Cl)c2)S(C)(=O)=O)cc1 the “activity change, negative = inhibition” value was inactive: 10.4%.
COc1ccc(-c2nc(Cn3c(SCc4ccc(F)cc4)nc4cccnc43)c(C)o2)cc1 was tested, and the Potency was inconclusive: 5.62 µM [inhibitor, partial curve, poor fit].
COc1ccc(CN[C@H]2C[C@H]3C(=O)NC[C@@H](CCC(=O)N4CCCCC4)N3C2)cc1 was tested, and the Potency was inconclusive: 22.4 µM [inhibitor, partial curve, poor fit].
In the case of COc1cccc(Cn2c(NCC(C)O)nc3c2c(=O)n(C)c(=O)n3C)c1 (configuration not stated), the “activity change, negative = inhibition” value is reported as inactive: 14.9%.
In the case of CCN1c2cc(C(=O)Nc3cccc(C(F)(F)F)c3)ccc2C(=O)N2CCCCCC21 (configuration not stated), the Potency is reported as inconclusive: 22.4 µM [inhibitor, partial curve, poor fit].
In the case of CC(C)N1C(=O)Cc2ccccc2C1C(=O)NCc1ccc(N(C)C)cc1 (configuration not stated), the “activity change, negative = inhibition” value is reported as inactive: -12.4%.
CC(C)(C)c1ncc(C(=O)N2CCc3[nH]cnc3C2c2ccccn2)c(=O)[nH]1 (configuration not stated) was tested, and the Potency was inconclusive: 0.794 µM [inhibitor, full curve, poor fit].
In the case of CCCCCCCCCS(=O)(=O)N/N=C/c1ccc([N+](=O)[O-])cc1, the Potency is reported as inconclusive: 39.8 µM [inhibitor, single point].
O=C1NCc2ccccc2CC12CCCN2Cc1ccc(OC(F)(F)F)cc1 (configuration not stated) was tested, and the Potency was inconclusive: 50.1 µM [inhibitor, partial curve].
For Cc1cccc(NC(=O)CN2CCN(Cc3csc(-c4ccccc4)n3)CC2)c1C, the “activity change, negative = inhibition” value was inactive: 5.65%.
For CCCNC(=O)Cc1ccc(NC(=O)N2CCSc3ncccc32)cc1, the Potency was inconclusive: 28.2 µM [inhibitor, partial curve, poor fit].
O=C(NC1CCN(Cc2ccccc2)CC1)c1cc2cc(F)ccc2[nH]1 was tested, and the Potency was inconclusive: 28.2 µM [inhibitor, single point].
COc1ccc(-c2nc3cnccn3c2NCCC(=O)N2CCCC(C)C2)cc1 (configuration not stated) was tested, and the Potency was active: 28.2 µM.
In the case of Cn1c([C@H]2CCN(S(=O)(=O)Cc3ccccc3)C2)nc2ccccc21, the “activity change, negative = inhibition” value is reported as inactive: -28.7% [at 86.2 µM].
For CCOc1ccc(NC(=O)Cn2c(CCC(=O)O)ccc2-c2ccc(C)cc2)cc1, the Potency was inconclusive: 17.8 µM [inhibitor, partial curve, poor fit].
With COc1ccc(-c2noc(CSc3nnc(-c4ccncc4)n3-c3ccc(C)c(C)c3)n2)cc1 the Potency was inconclusive: 2 µM [inhibitor, full curve, poor fit].
With CCC1CN(CC(=O)Nc2ccc(OC)c(Cl)c2)c2ccccc2S1 (configuration not stated) the “activity change, negative = inhibition” value was inactive: -24.5%.
With Clc1ccc(Nc2nc(-c3ccccc3)c3cc(Cl)ccc3n2)cc1 the Potency was inconclusive: 0.794 µM [inhibitor, partial curve, poor fit].
In the case of CCOC(=O)c1[nH]c2ccccc2c1NC(=O)c1cc(OCC)c(OCC)c(OCC)c1, the Potency is reported as inconclusive: 25.1 µM [inhibitor, partial curve, poor fit].
With CCCNc1cc(N2CCC(CCC(=O)O)CC2)ncn1 the “activity change, negative = inhibition” value was inactive: 6.04%.
With CC(C)(CNC(=O)CCc1ncc(-c2ccc(F)cc2)o1)N1CCOCC1 the Potency was inconclusive: 25.1 µM [inhibitor, partial curve, poor fit].
For COC(=O)C(C)OC(=O)/C=C/c1ccc2ccccc2n1 (configuration not stated), the Potency was inconclusive: 15.8 µM [inhibitor, partial curve, poor fit].
In the case of CN1CCN(CCOCCOc2c(Cl)cc(Cl)cc2Cl)CC1, the Potency is reported as inconclusive: 25.1 µM [inhibitor, single point].
With CCN1CC(Nc2ccc(-c3nc(CCCc4ccccc4)no3)cn2)CC1=O (configuration not stated) the Potency was active: 28.2 µM.
In the case of CN(CC(=O)Nc1ccc(Cl)c(C(F)(F)F)c1)Cc1cc(Cl)cc2c1OCOC2, the “activity change, negative = inhibition” value is reported as inactive: -16.1%.
COc1ccc(-n2ccnc2CN2CCCC(O)(CO)C2)cc1 (configuration not stated) was tested, and the Potency was inconclusive: 0.708 µM [inhibitor, partial curve, poor fit].
With CCc1nc(N2CCN(C(=S)Nc3ccccc3)CC2)c(C#N)c2c1CSC(C)(C)C2 the Potency was inconclusive: 31.6 µM [inhibitor, partial curve, poor fit].
With C/C(=N\NC(=S)Nc1ccccc1)c1cccc(C(F)(F)F)c1 the “activity change, negative = inhibition” value was inactive: -28.2%.
In the case of Cc1ccccc1CC(=O)NC12CC3CC(CC(C3)C1)C2, the “activity change, negative = inhibition” value is reported as inactive: 21.2%.
For CNC(=O)c1ccc(NC(=O)COc2ccc(-c3nn(C)c(=O)c4ccccc34)cc2)cc1, the Potency was inconclusive: 14.1 µM [inhibitor, partial curve, poor fit].
CSc1ccc(/C=N/NC(=O)c2ccccc2F)cc1 was tested, and the Potency was inconclusive: 25.1 µM [inhibitor, single point].
In the case of Cc1ccc(C(=O)NCCn2ccn3nc(-c4ccc(C)c(C)c4)cc3c2=O)cc1, the Potency is reported as inconclusive: 35.5 µM [inhibitor, partial curve, poor fit].
For COCCNC(=O)C1COC2(CCN(C(=O)c3ccccc3F)CC2)N1C(=O)c1ccco1 (configuration not stated), the “activity change, negative = inhibition” value was inactive: -14.5%.
In the case of O=C(Nc1cccc(-c2ccc(N3CCOCC3)nn2)c1)Nc1cccc(C(F)(F)F)c1, the “activity change, negative = inhibition” value is reported as inactive: -25.9%.
In the case of CC(C)C(=O)Nc1ccc(S(=O)(=O)NCCn2nc(-c3ccccc3)ccc2=O)cc1, the “activity change, negative = inhibition” value is reported as inactive: 11.4%.
With CCOc1ccc2[nH]c(=O)c(CN(C)CC3CCN(C)C3)cc2c1 (configuration not stated) the Potency was inconclusive: 28.2 µM [inhibitor, partial curve, poor fit].
For Cc1cc(C=O)c(C)n1C, the “activity change, negative = inhibition” value was inactive: 20.8%.
COc1cc(Cl)c(C)cc1NC(=O)c1cc2c(s1)-c1c(C)cccc1OC2 was tested, and the activity change, negative = inhibition was inconclusive: -43.4% [inhibitor].
For Clc1ccc(Nc2ccc3ccccc3n2)cc1, the Potency was inconclusive: 31.6 µM [inhibitor, single point].
In the case of CN(C)CCNC(=O)c1n[nH]c2c1CN(C(=O)c1ccc(F)cc1F)CC2, the “activity change, negative = inhibition” value is reported as inactive: -12.4%.
With CN1CC(C(=O)O)Cc2c1ccc1ccccc21 (configuration not stated) the Potency was inconclusive: 22.4 µM [inhibitor, partial curve, poor fit].
In the case of COc1ccc(-c2cc(-c3ccc4c(c3)C(=O)NC4)cn3cncc23)cc1, the Potency is reported as inconclusive: 15.8 µM [inhibitor, partial curve, poor fit].
In the case of O=C(NCC(O)c1ccccc1)c1nc(-c2cccc3[nH]ccc23)no1 (configuration not stated), the “activity change, negative = inhibition” value is reported as inactive: 9.29%.
In the case of CCc1cccc(NC(=O)CCN2C(=O)c3ccccc3Sc3ncccc32)c1, the Potency is reported as inconclusive: 15.8 µM [inhibitor, partial curve, poor fit].
In the case of O=C(CCC[C@@H]1[C@H]2CCCN3CCC[C@@H](CN1Cc1cccnc1)[C@@H]23)Nc1ccncc1, the Potency is reported as inconclusive: 28.2 µM [inhibitor, single point].
With Cc1ccc(N2NC3(CCC(C)CC3)NC2=S)cc1 (configuration not stated) the Potency was inconclusive: 28.2 µM [inhibitor, single point].
For O=C(N/N=C/c1cccs1)c1cc(-c2ccccc2)nc2ccccc12, the Potency was inconclusive: 39.8 µM [inhibitor, single point].
COc1ccc(OC)c(CCNC(=O)c2cc3c(=O)n(C)c4ccccc4c3n2C)c1 was tested, and the Potency was inconclusive: 39.8 µM [inhibitor, single point].
With Cc1ccc(-c2nnn(CCC(=O)Nc3sc4c(c3C#N)CCCC4)n2)cc1 the “activity change, negative = inhibition” value was inactive: 17.9%.
For CCN(CC)S(=O)(=O)c1ccc(-c2nc(C#N)c(NCc3ccc(F)cc3)o2)cc1, the Potency was inconclusive: 20 µM [inhibitor, partial curve, poor fit].
With COc1ccc(-c2nn(Cc3nc(-c4ccccc4Br)no3)c(=O)c3ccccc23)cc1 the Potency was inconclusive: 39.8 µM [inhibitor, single point].
With CC1=C[C@@H](CNS(=O)(=O)c2ccccc2)[C@H](C(C)C)C[C@H]1CC(=O)NCc1ccc(C#N)cc1 the Potency was inconclusive: 35.5 µM [inhibitor, single point].
For Cc1nc2ccccc2c(-c2ccccc2)c1C(=O)/C=C/c1ccccc1, the “activity change, negative = inhibition” value was inactive: -11%.
In the case of O=C(COCc1cc(-c2ccco2)on1)Nc1cccc(Cl)c1Cl, the Potency is reported as inconclusive: 7.94 µM [inhibitor, partial curve, poor fit].
With Cc1ccc(-n2nnc(C(=O)NC(C)C)c2C)cc1Cl the “activity change, negative = inhibition” value was inactive: 15.5%.
With CC#CCN(Cc1ccco1)C(=O)C1CCC(=O)N(Cc2ccccc2F)C1 (configuration not stated) the “activity change, negative = inhibition” value was inactive: 26.9%.
Cc1cn2nc(C(=O)N3CCC(NC(=O)CCc4ccccc4)CC3)cc2c(=O)[nH]1 was tested, and the Potency was inconclusive: 31.6 µM [inhibitor, single point].
O=C(NCCCN1CCc2ccccc2C1)c1c(OCC2CC2)cc(=O)n2c1CCCCC2 was tested, and the Potency was inconclusive: 20 µM [inhibitor, partial curve].
With COCCNc1nc(-c2[nH]c(C)c(C(=O)OC)c2C)cs1 the Potency was inconclusive: 31.6 µM [inhibitor, single point].
With C[C@@H]1OCN(C)[C@H]2C[C@H]3c4[nH]c5cccc(-c6cccc(F)c6)c5c4CCN3C(=O)[C@@H]12 the Potency was inconclusive: 1.78 µM [inhibitor, partial curve, poor fit].
O=C(CCc1cc2n(n1)CCCNC2)N[C@H]1CCC[C@H]1Cc1ccc(F)cc1 was tested, and the Potency was inconclusive: 31.6 µM [inhibitor, partial curve, poor fit].
With Cc1nc(NCc2csc(-c3cnccn3)n2)cc(C2CC(O)C2)n1 (configuration not stated) the Potency was inconclusive: 22.4 µM [inhibitor, partial curve, poor fit].
With O=c1n(-c2ccncc2)nc2n1CCN(Cc1ccc(C(F)(F)F)cc1)C2 the “activity change, negative = inhibition” value was inactive: 7.47%.
Cc1[nH]ccc1C(=O)N(CCN1CCCCC1)CC1CCCN(C2CCCC2)C1 (configuration not stated) was tested, and the Potency was inconclusive: 8.91 µM [inhibitor, partial curve].
In the case of N#Cc1cccc(CSc2nccc(C(F)(F)F)n2)c1, the “activity change, negative = inhibition” value is reported as inactive: -3.41%.
With COCCN1CCNc2cc(Nc3cccc(N(C)C)c3)ncc2C1 the Potency was active: 35.5 µM.
